Measured values published in article PMC5049798.
These are yes or no findings as the source states them, for the method shown. Binding seen in cells or lysates may run through a third protein. Some binding calls cover weakened binding; strength is not graded here. For some of these results: Tags and fused reporters may be left off the sequences shown.

By UniProt entry, the sequences of proteins in these tests, tags left out.
UniProt P17383: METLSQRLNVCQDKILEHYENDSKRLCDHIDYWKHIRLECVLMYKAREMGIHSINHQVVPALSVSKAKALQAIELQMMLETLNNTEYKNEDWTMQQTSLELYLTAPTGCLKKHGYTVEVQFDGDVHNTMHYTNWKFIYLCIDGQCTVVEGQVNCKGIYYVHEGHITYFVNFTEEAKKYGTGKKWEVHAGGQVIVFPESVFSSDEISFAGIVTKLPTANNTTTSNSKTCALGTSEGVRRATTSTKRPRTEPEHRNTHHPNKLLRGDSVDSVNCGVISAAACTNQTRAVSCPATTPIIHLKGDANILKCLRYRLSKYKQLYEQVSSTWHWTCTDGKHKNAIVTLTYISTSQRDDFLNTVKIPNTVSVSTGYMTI

Legend:
[1] = target: T1, Endogenous ORC2 (C33A cells) (human (endogenous in C33A)) (UniProt Q13416); assay: proximity ligation; in-situ PLA (PLA Red kit, Olink) in transfected C33A cells, fixed 24 h after transfection in 4% paraformaldehyde; primary antibody pairs rabbit FLAG + mouse anti-human ORC2, or M2 FLAG + rabbit 16E1
T1 sequence: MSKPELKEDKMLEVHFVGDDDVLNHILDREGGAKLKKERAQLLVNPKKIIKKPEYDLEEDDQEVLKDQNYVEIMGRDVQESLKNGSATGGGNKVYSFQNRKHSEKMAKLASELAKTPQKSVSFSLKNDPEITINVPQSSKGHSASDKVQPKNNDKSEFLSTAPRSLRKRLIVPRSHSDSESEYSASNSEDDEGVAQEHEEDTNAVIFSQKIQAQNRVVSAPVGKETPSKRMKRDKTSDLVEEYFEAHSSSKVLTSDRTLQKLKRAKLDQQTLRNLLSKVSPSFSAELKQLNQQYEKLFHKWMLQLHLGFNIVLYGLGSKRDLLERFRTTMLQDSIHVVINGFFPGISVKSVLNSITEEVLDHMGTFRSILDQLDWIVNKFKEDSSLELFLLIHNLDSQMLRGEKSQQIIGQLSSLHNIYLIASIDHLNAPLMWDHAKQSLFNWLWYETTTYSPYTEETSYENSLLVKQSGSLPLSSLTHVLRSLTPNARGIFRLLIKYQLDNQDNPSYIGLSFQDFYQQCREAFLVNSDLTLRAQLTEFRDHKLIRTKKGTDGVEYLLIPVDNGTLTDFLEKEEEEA

[2] = target: T2, HA-tagged human ORC2 (HA-hORC2) (human) (UniProt Q13416); assay: as above
T2 sequence: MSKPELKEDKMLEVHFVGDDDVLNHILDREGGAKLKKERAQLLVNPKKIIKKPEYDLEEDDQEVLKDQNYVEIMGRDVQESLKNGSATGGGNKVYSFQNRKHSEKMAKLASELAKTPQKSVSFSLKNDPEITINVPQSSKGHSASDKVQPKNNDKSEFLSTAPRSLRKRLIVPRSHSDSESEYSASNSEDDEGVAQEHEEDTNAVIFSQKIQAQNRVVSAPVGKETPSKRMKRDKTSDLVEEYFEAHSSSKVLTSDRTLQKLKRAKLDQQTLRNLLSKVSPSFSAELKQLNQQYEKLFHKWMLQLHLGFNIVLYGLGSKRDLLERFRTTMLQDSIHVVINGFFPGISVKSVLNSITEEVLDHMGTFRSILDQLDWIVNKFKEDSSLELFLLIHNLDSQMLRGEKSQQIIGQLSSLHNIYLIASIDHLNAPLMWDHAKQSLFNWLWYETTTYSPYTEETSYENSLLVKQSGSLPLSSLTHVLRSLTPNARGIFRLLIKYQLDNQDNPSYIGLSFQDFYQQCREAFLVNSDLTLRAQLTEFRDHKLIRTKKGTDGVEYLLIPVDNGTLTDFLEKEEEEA

[3] = target: T2, HA-tagged human ORC2 (HA-hORC2) (human); assay: co-IP; 293TT cells co-transfected; HA antibody immunoprecipitates of HA-ORC2 blotted with HA-7/ORC2 and M2/FLAG antibodies; lysis in 1% NP-40, 50 mM NaCl, 10 mM HEPES pH 7.4, 10% glycerol, benzonase; washes with 500 mM NaCl, 0.1% SDS, 1% NP-40
[4] = target: BPV-1 E2 (bovine papillomavirus type 1 E2 protein), full length (bovine papillomavirus type 1 (BPV-1)) (UniProt P03122); assay: co-IP; C33A cells co-transfected; BPV-1 E2 forms immunoprecipitated (II-1 or B201 antibody), blotted with B201 and M2 (FLAG); groups without full length E2 treated with 10 uM MG132 for 6 hr in Fig 1B; lysis in 1% NP-40, 50 mM NaCl, 10 mM HEPES pH 7.4, 10% glycerol, benzonase; washes with 500 mM NaCl, 0.1% SDS, 1% NP-40
[5] = target: BPV-1 E2 transactivation domain (TAD, aa 1-216) (bovine papillomavirus type 1 (BPV-1)) (UniProt P03122); assay: as above
[6] = target: BPV-1 E2R (aa 162-410) (bovine papillomavirus type 1 (BPV-1)) (UniProt P03122); assay: as above
[7] = target: 6-His-BPV E2:1-216 (bovine papillomavirus type 1 (BPV-1)) (UniProt P03122); assay: pull-down; High Five lysate with human ORC2 added to purified His-tagged proteins with nickel Dynabeads in 1% NP-40, 50 mM NaCl, 10 mM HEPES pH 7.4, 10% glycerol, benzonase; blotted with E2 (B201), E6 and ORC2 antibodies; only the target purified
[8] = target: FLAG-HPV-31 E2 (human papillomavirus type 31 (HPV-31)) (UniProt P17383); assay: proximity ligation; in-situ PLA (PLA Red kit, Olink) in transfected C33A cells, fixed 24 h after transfection in 4% paraformaldehyde; primary antibody pairs rabbit FLAG + mouse anti-human ORC2, or M2 FLAG + rabbit 16E1

FLAG-HPV-31 E2 (from UniProt P17383 1-372)
binding [1]: binds | binding [2]: binds | binding [3]: binds

B1: FLAG-mouse ORC2 (protein, UniProt Q60862 1-576)
chain: MSTLQLKETKVPSVQFVGDDDVLSHILDREGGTKLKKEKAQLLVNPQKVIKKADCELEKSDLEVLEDQNYVKVLGRNIQESLGNGSAKDGRNKVYSFQQRKHPEEMTKLALELAKTSGKKDPLDSNDPEITKNIAQKSKGHSTSEKAPLVNNNKTEFLSTQPHNLRKRIIASRSHYDSESEYSASSSEDDEEATKDEEEDTNVARLSQKSQGQNRLLPAPVSKETLPKKKKRDKASDLVEEYFEAHSSSKVLTSDRTLQRLRRARVDQKTLHNLLRKFVPSFSAEIERLNQQHEKLFHKWMLQLHLGFNIVLYGLGSKRDLLEKFRTTMLQDSIHVVINGYFPGVSVKSILNSITEDVLSHVGTFQSVLDQRDWIINRFKEDSSLELFLLIHNLDSQMLRGDNSQQILGQLSSLHNVYLIASIDHLNAPLMWDHAKQSLYNWLWYETTTYSPYTEETSYENSLLVKQSGSLPLSSLIHVLRSLTPNARGIFRLLMKFQLDNQDSPSYIGLSFQDFYQQCREAFLVNSDLTLRAQLTEFRDHKLIRTKKGTDGVEYLLIPVDSGILADFLEKEEEEA
binding [4]: binds | binding [5]: binds | binding [6]: no binding

B2: Human ORC2 protein (baculovirus expressed) (protein, UniProt Q13416 1-577)
chain: MSKPELKEDKMLEVHFVGDDDVLNHILDREGGAKLKKERAQLLVNPKKIIKKPEYDLEEDDQEVLKDQNYVEIMGRDVQESLKNGSATGGGNKVYSFQNRKHSEKMAKLASELAKTPQKSVSFSLKNDPEITINVPQSSKGHSASDKVQPKNNDKSEFLSTAPRSLRKRLIVPRSHSDSESEYSASNSEDDEGVAQEHEEDTNAVIFSQKIQAQNRVVSAPVGKETPSKRMKRDKTSDLVEEYFEAHSSSKVLTSDRTLQKLKRAKLDQQTLRNLLSKVSPSFSAELKQLNQQYEKLFHKWMLQLHLGFNIVLYGLGSKRDLLERFRTTMLQDSIHVVINGFFPGISVKSVLNSITEEVLDHMGTFRSILDQLDWIVNKFKEDSSLELFLLIHNLDSQMLRGEKSQQIIGQLSSLHNIYLIASIDHLNAPLMWDHAKQSLFNWLWYETTTYSPYTEETSYENSLLVKQSGSLPLSSLTHVLRSLTPNARGIFRLLIKYQLDNQDNPSYIGLSFQDFYQQCREAFLVNSDLTLRAQLTEFRDHKLIRTKKGTDGVEYLLIPVDNGTLTDFLEKEEEEA
binding [7]: binds

B3: HA-HPV-31 E1 (protein, UniProt P17382 1-629)
chain: MADPAGTDGEGTGCNGWFYVEAVIDRQTGDNISEDENEDSSDTGEDMVDFIDNCNVYNNQAEAETAQALFHAQEAEEHAEAVQVLKRKYVGSPLSDISSCVDYNISPRLKAICIENNSKTAKRRLFELPDSGYGNTEVETQQMVQVEEQQTTLSCNGSDGTHSERENETPTRNILQVLKTSNGKAAMLGKFKELYGVSFMELIRPFQSNKSTCTDWCVAAFGVTGTVAEGFKTLLQPYCLYCHLQSLACSWGMVMLMLVRFKCAKNRITIEKLLEKLLCISTNCMLIQPPKLRSTAAALYWYRTGMSNISDVYGETPEWIERQTVLQHSFNDTTFDLSQMVQWAYDNDVMDDSEIAYKYAQLADSDSNACAFLKSNSQAKIVKDCGTMCRHYKRAEKRQMSMGQWIKSRCDKVSDEGDWRDIVKFLRYQQIEFVSFLSALKLFLKGVPKKNCILIHGAPNTGKSYFGMSLISFLQGCIISYANSKSHFWLQPLADAKIGMLDDATTPCWHYIDNYLRNALDGNPVSIDVKHKALMQLKCPPLLITSNINAGKDDRWPYLHSRLVVFTFPNPFPFDKNGNPVYELSDKNWKSFFSRTWCRLNLHEEEDKENDGDSFSTFKCVSGQNIRTL
binding [8]: binds

B4: FLAG-mouse ORC1 (protein, UniProt Q9Z1N2 1-840)
chain: MPSYLTRQKTRQTFSWVGRPLPNRKQFQQMYREICMKINDGSEIHIKVGQFVLIQGEDNKKPYVAKLIELFQNGAEVPPKKCARVQWFVRFLEIPVSKRHLLGRSPPAQEIFWYDCSDWDNKINVETIIGPVQVVALAPEEVIPVDQKSEETLFVKLSWNKKDFAPLPPEVLAALREQEDSPEWQKPLKAKIKNVKSPARNTTEQEVKGIKSNHSTSKFHQTPANIVIPNAKKSLELDGLGFTRKPNTRWSKKSSCDSLDYQKTSKRRAAFSETTSPPKKPNKPREIKPSSALETRVKNGQTQPFCAKSSVVLRARNPAMTTTKLGVDNTLSPIRNGLRSSVVPSGGLTPVYIRRKAKEQETHKEPIRTSRVHRKSSLLTLKRIRQQLCLLDGDDRDQEEEESVDSESEEEDEFISSLPTRNSLGQSRTRQTPSKSPQKNPKPRTPHRATPQIRDRNLAVQEPASALEEARLRLHVSAVPDSLPCREQEFQDIYSFVESKLLDGTGGCMYISGVPGTGKTATVHEVIRCLQQAAETDDVPPFQYVEVNGMKLTEPHQVYVQILKKLTGQKATANHAAELLAKQFCGQGSQKETTVLLVDELDLLWTHKQDVMYNLFDWPTHKGAHLIVLTIANTMDLPERIMMNRVSSRLGLTRMSFQPYSHSQLKQILVSRLRNLRAFEDDAIQLVARKVAALSGDARRCLDICRRATEICELSHLRGDSLSLVTVAHLMEAIDEMFSSSYITAIKNSSVVEQSFLRAIIAEFRRSGLEEATFQQIYSQHVALCRMEGLPYPTMSETMAVCSRLGSCRLLLVEPSRNDLLLRVRLNVSQNDVLFALKEE
binding [4]: no binding

B5: FLAG-HPV-31 E1 (codon optimized triple FLAG HPV-31 E1) (protein, UniProt P17382 1-629)
chain: MADPAGTDGEGTGCNGWFYVEAVIDRQTGDNISEDENEDSSDTGEDMVDFIDNCNVYNNQAEAETAQALFHAQEAEEHAEAVQVLKRKYVGSPLSDISSCVDYNISPRLKAICIENNSKTAKRRLFELPDSGYGNTEVETQQMVQVEEQQTTLSCNGSDGTHSERENETPTRNILQVLKTSNGKAAMLGKFKELYGVSFMELIRPFQSNKSTCTDWCVAAFGVTGTVAEGFKTLLQPYCLYCHLQSLACSWGMVMLMLVRFKCAKNRITIEKLLEKLLCISTNCMLIQPPKLRSTAAALYWYRTGMSNISDVYGETPEWIERQTVLQHSFNDTTFDLSQMVQWAYDNDVMDDSEIAYKYAQLADSDSNACAFLKSNSQAKIVKDCGTMCRHYKRAEKRQMSMGQWIKSRCDKVSDEGDWRDIVKFLRYQQIEFVSFLSALKLFLKGVPKKNCILIHGAPNTGKSYFGMSLISFLQGCIISYANSKSHFWLQPLADAKIGMLDDATTPCWHYIDNYLRNALDGNPVSIDVKHKALMQLKCPPLLITSNINAGKDDRWPYLHSRLVVFTFPNPFPFDKNGNPVYELSDKNWKSFFSRTWCRLNLHEEEDKENDGDSFSTFKCVSGQNIRTL
binding [3]: no binding
